From PubChem BioAssay AID651820 (National Center for Advancing Translational Sciences (NCATS), 2012)
In all, about 340,000 compounds went through this assay and about 12,000 (3.5%) were called active. The shares of active, inactive and inconclusive entries below differ from those in the screen. The call rests on the fitted dose curve; in most records, active means well fitted inhibition curve with a large enough effect; inconclusive means small, poorly fitted or top-dose-only effect, or another doubt; inactive means no such curve, though single readings can be large or run the other way. No potency is given beside an inconclusive call; the fits are too rough.

Experiment: qHTS Assay for Inhibitors of Hepatitis C Virus (HCV)
Conditions: Huh7.5.1 HCVcc-Cre (HCVcc is cell-culture hepatitis C virus) infection, luciferase reporter, 44 h; activity change, negative = inhibition: at 41.8 µM (top of the series) unless noted
Summary of the method: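 A cell-based infection assay in which seeded cells (1,000 per well) receive test compound after 4 h, are inoculated with HCVcc-Cre at approximately 0.5 moi, and are incubated 44 h before luminescence detection.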
On the % scale 0 is the no-effect control and ±100 the full control effect; potency means the concentration at half of the fitted maximal effect; tags describe the fitted curve by direction and shape.

Row | Structure (SMILES) | Potency | activity change, negative = inhibition
1 | COc1ccccc1C(=O)Nc1nc2cc3c(cc2s1)OCCO3 | inconclusive [inhibitor, single point] | –
2 | Cc1cc(=O)oc2c3c(cc(OCC(=O)Nc4cccnc4)c12)OC(C)(C)CC3 | inconclusive [inhibitor, partial curve] | –
3 | Cc1ccc(S(=O)(=O)NCC2CCC(C(=O)NCc3cccnc3)CC2)cc1 (stereo unspecified) | – | inactive: -9.94%
4 | c1ccc2c(c1)oc1c(NCc3ccc4c(c3)OCO4)ncnc12 | inconclusive [inhibitor, single point] | –
5 | Cc1ccc(-c2cc(C(=O)N3CCc4ccccc4C3)[nH]n2)cc1C | inconclusive [inhibitor, partial curve] | –
6 | COc1ccc(CNC(=O)c2c(F)c(F)c(F)c(F)c2F)cc1 | inconclusive [inhibitor, single point] | –
7 | COc1ccc(NC(=O)c2cc3ccccc3o2)cc1OC | – | inactive: -5.69%
8 | O=C(CN1C(=O)NC2(CCCCCC2)C1=O)NCc1ccc(Cl)cc1 | – | inactive: -22.9%
9 | CCN(CC)C(=O)COc1ccc2c(c1)C(=O)CC(C)(C)O2 | – | inactive: 28.4%
10 | COc1ccc(NC(=O)CN(C)C(=O)c2cccc(S(=O)(=O)N3CCN(c4ccccc4)CC3)c2)cc1 | inconclusive [inhibitor, partial curve] | –
11 | CC(C)(C)c1ccc(NC(=O)Nc2ccc(OCC(=O)N3CCOCC3)cc2)cc1 | inconclusive [inhibitor, single point] | –
12 | O=C(Nc1ccccc1N1CCCCC1)c1ccc(Cl)c([N+](=O)[O-])c1 | active: 12.6 µM | –
13 | CN(C)S(=O)(=O)Oc1ccsc1C(=O)Nc1ccccc1Cl | inconclusive [inhibitor, single point] | –
14 | COC(=O)[C@@]12CCCCN1[C@H](c1ccc(-c3cccc(Cl)c3)c(OC)c1)[C@@H]1C(=O)N(C)C(=O)[C@@H]12 | inconclusive [inhibitor, single point] | –
15 | O=C(NC1CCCc2ccccc21)C1CCN(S(=O)(=O)c2ccccc2F)CC1 (stereo unspecified) | inconclusive [inhibitor, single point] | –
16 | O=C(CSc1nnc(COc2ccc(Cl)cc2)o1)NC1CC2CCC1C2 (stereo unspecified) | – | inactive: 0.965%
17 | COc1cc(OC)c(OC)cc1CN1CCN(c2ccccc2OC)CC1 | – | inactive: 0.163%
18 | CCOC(=O)C1CCN(C(=O)c2oc3ccc4c(c3c2C)C(O)CC2(CCCCC2)O4)CC1 (stereo unspecified) | inconclusive [inhibitor, single point] | –
19 | CC(OC(=O)Cc1n[nH]c(=O)c2ccccc12)C(=O)Nc1cccc([N+](=O)[O-])c1 (stereo unspecified) | – | inactive: 17.5%
20 | CC(=O)c1ccc(OCCCC(=O)N2CCN(S(=O)(=O)c3ccc(C)cc3C)CC2)cc1 | inconclusive [inhibitor, single point] | –
21 | CCN1C(=O)[C@@H]2[C@@H](c3ccc(-c4ccccc4)cc3)N3CCC[C@@]3(C(=O)OC)[C@@H]2C1=O | – | inactive: -9.89%
22 | Cc1cccc(OCCCN2C(=O)C(=O)c3cc(C)ccc32)c1 | inconclusive [inhibitor, single point] | –
23 | c1cncc(-c2nc(NCC3CCCO3)c3ccccc3n2)c1 (stereo unspecified) | inconclusive [inhibitor, full curve, poor fit] | –

Row | Structure (SMILES) | Potency | activity change, negative = inhibition
24 | Cc1occc1-c1nnc(-c2cc([N+](=O)[O-])cc([N+](=O)[O-])c2)o1 | inconclusive [inhibitor, single point] | –
25 | COc1ccc(-n2nnnc2/C=C/Nc2cc(C(F)(F)F)ccc2OC)cc1 | inconclusive [inhibitor, full curve] | –
26 | Cc1ccc(S(=O)(=O)c2c(N)n(CCC(C)C)c3nc4ccccc4nc23)cc1 | inconclusive [inhibitor, single point] | –
27 | CC1CCN(C(=O)C2CCN(S(=O)(=O)c3ccc4c(c3)CC(C)N4C(=O)C3CC3)CC2)CC1 (stereo unspecified) | inconclusive [inhibitor, single point] | –
28 | COc1cccc(CNS(=O)(=O)c2ccc3c(c2)N(C)CCO3)c1 | – | inactive: -18.9%
29 | Cn1c(=O)[nH]c(=O)c2c1nc(N1CCN(C(c3ccccc3)c3ccccc3)CC1)n2CCO | active: 10 µM | –
30 | Cc1cc2[nH]c3c4ccccc4nc(C)c3c2cc1C | active: 12.6 µM | –
31 | CC(=O)c1c(O)cc(O)cc1CC(=O)O | active: 0.891 µM | –
32 | CCC(C)Sc1ccc([C@H]2N[C@@](Cc3ccccc3)(C(=O)OC)[C@H]3C(=O)N(C)C(=O)[C@@H]23)cc1 (stereo partly specified) | inconclusive [inhibitor, partial curve] | –
33 | Cc1cccc(N2CCN(C(=O)c3ccoc3C)CC2)c1C | inconclusive [inhibitor, partial curve] | –
34 | CCOC(=O)c1sc2c(c1C)c(=O)n(CCO)c(=O)n2Cc1ccccc1 | inconclusive [inhibitor, single point] | –
35 | CCCN1CCN(C(=O)Cn2nc(C)n3c(cc4c(OC)cccc43)c2=O)CC1 | – | inactive: 19.9%
36 | COc1ccc(-c2coc3c(C)c4oc(=O)c(CCC(=O)O)c(C)c4cc23)cc1 | active: 2.51 µM | –
37 | Cc1ccc(NCC(=O)N/N=C\c2ccc([N+](=O)[O-])o2)cc1 | active: 3.16 µM | –
38 | CCCCSc1nc2ccc(Nc3nc(N4CCOCC4)nc(N4CCOCC4)n3)cc2s1 | inconclusive [inhibitor, single point] | –
39 | Cc1cc(C)cc(NC(=O)CN2C(=O)c3ccccc3C2=O)c1 | – | inactive: -14.1%
40 | CC1Cc2nc(SCC(=O)c3ccccc3)n(Cc3ccccc3)c(=O)c2S1 (stereo unspecified) | active: 11.2 µM | –
41 | CCOc1ccc(N(CC(=O)N2CCCCCC2)S(C)(=O)=O)cc1 | – | inactive: 3.71%
42 | CC(=O)N1N=C(c2ccc(Cl)cc2)CC1c1ccco1 (stereo unspecified) | – | inactive: 6.71%
43 | CC1=C(C(=O)OC2CCC(C)CC2)C(c2ccc(O)c([N+](=O)[O-])c2)NC(=O)N1 (stereo unspecified) | – | inactive: 1.41%
44 | Cc1ccc(C(=O)N/N=C\c2ccc(-c3ccc([N+](=O)[O-])cc3)o2)cn1 | – | inactive: -14.5%
45 | O=C(/C=C/c1ccc([N+](=O)[O-])s1)N1CCCC1 | inconclusive [inhibitor, single point] | –
46 | CCOC(=O)Cc1csc(-n2sc3ccccc3c2=O)n1 | – | inactive: -4.27%
